Paper PMC4336329 (PLoS ONE, 2015)
About 14,000 (4.5%) of roughly 310,000 compounds showed an effect of 50% or more. The effect is printed as a negative number. The list shows a part of the results.
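Further: peak tail current of the secondary pulse compared with the same well before compound.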

Each compound was assayed against human ether-à-go-go-related gene (hERG) potassium channel (human, UniProt Q12809) (assay: primary screen, population patch clamp on CHO cells stably expressing hERG).
Sequence of human ether-à-go-go-related gene (hERG) potassium channel (Q12809 whole entry, looked up): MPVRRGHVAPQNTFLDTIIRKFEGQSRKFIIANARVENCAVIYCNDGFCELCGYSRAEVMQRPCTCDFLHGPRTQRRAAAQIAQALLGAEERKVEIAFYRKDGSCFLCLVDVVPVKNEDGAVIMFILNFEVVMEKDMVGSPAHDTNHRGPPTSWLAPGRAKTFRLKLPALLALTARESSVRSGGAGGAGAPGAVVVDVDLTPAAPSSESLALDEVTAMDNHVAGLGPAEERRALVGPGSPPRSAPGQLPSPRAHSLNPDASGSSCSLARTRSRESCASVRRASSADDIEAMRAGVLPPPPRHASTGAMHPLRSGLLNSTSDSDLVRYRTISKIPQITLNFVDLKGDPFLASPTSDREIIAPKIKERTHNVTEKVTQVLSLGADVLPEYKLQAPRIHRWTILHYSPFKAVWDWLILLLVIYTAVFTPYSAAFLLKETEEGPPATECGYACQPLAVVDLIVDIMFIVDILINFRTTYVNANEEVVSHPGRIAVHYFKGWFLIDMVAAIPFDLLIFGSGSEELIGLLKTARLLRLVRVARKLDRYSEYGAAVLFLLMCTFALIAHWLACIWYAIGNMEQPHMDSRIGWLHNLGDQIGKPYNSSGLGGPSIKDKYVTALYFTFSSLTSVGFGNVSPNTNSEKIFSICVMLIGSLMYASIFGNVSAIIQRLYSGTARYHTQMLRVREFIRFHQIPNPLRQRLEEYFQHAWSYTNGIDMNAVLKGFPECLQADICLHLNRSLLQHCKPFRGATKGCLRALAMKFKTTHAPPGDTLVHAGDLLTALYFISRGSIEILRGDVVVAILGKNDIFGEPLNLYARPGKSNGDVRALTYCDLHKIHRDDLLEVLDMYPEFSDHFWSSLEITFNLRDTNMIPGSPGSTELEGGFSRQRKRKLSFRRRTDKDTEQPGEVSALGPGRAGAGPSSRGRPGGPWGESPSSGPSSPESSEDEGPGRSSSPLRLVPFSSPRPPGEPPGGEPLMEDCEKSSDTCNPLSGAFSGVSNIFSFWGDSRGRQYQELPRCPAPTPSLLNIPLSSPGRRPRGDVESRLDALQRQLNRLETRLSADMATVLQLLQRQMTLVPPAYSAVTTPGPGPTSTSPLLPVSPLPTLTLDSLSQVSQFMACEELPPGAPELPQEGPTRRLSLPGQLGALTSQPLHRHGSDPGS
For Cc1nc(Nc2ccccc2F)c2oc3ccccc3c2n1, the “hERG current change (%, negative = inhibition) at 10uM” value was -10.8%. With COc1ccccc1S(=O)(=O)Cc1ccc(C(=O)NCCN2CCCCCC2)o1 the “hERG current change (%, negative = inhibition) at 10uM” value was 2.78%. With Cn1ncc(C(=O)N=S(C)(=O)c2ccccc2)c1[N+](=O)[O-] (centres unmarked) the “hERG current change (%, negative = inhibition) at 10uM” value was 11.4%. CCOc1cccc(Nc2ccc([N+](=O)[O-])cn2)c1 was tested, and the “hERG current change (%, negative = inhibition) at 10uM” value was 11.8%. With O=C(Nc1ccncc1)c1cc(-c2ccccn2)nc2ccccc12 the “hERG current change (%, negative = inhibition) at 10uM” value was 8.94%. With Cc1ccc(OCC(=O)OCC(=O)N2c3ccccc3CC2C)cc1C (centres unmarked) the “hERG current change (%, negative = inhibition) at 10uM” value was 7.96%. COC(=O)C(Cc1ccccc1)NC(=O)c1ccc(NS(=O)(=O)c2ccc3[nH]c(=O)[nH]c3c2)cc1 (centres unmarked) was tested, and the “hERG current change (%, negative = inhibition) at 10uM” value was 16.5%. In the case of CC1(C)C=Cc2cc(-c3coc4cc(O)cc(O)c4c3=O)cc(O)c2O1, the “hERG current change (%, negative = inhibition) at 10uM” value is reported as -1.02%. With CCOc1ccc(CCNC(=O)C2CCCN2C(=O)OCc2ccccc2)cc1OCC (centres unmarked) the “hERG current change (%, negative = inhibition) at 10uM” value was 2.19%. O=C(COC(=O)C12CC3CC(CC(Br)(C3)C1)C2)N1CCOCC1 was tested, and the “hERG current change (%, negative = inhibition) at 10uM” value was 2.25%. For Nn1c(SCc2ccccc2)nnc1C1CCCCC1, the “hERG current change (%, negative = inhibition) at 10uM” value was 7.68%. Cc1ccccc1OCCNC(=O)CSc1ccc(C(F)(F)F)cc1[N+](=O)[O-] was tested, and the “hERG current change (%, negative = inhibition) at 10uM” value was 10.6%. COc1ccccc1C(CNC(=O)c1ccc(OCc2c(C)noc2C)cc1)N1CCCC1 (centres unmarked) was tested, and the “hERG current change (%, negative = inhibition) at 10uM” value was -19.9%. C[C@H](NCCc1ccc(O)cc1)[C@H](O)c1ccc(O)cc1.Cl was tested, and the “hERG current change (%, negative = inhibition) at 10uM” value was 6.27%. For Cc1cc(=O)oc2cc(OCC(=O)OCc3nnc(-c4ccccc4)o3)ccc12, the “hERG current change (%, negative = inhibition) at 10uM” value was 14.3%. CC(C)C(NC(=O)c1ccccc1)C(=O)N1CCCCCC1 (centres unmarked) was tested, and the “hERG current change (%, negative = inhibition) at 10uM” value was 27.3%. With CC(=O)N1CCC(N(CCN2CCOCC2)C(=S)Nc2ccc(C)cc2)CC1 the “hERG current change (%, negative = inhibition) at 10uM” value was -6.52%. CNS(=O)(=O)c1cccc(C(=O)OCC(=O)c2cc3ccccc3o2)c1 was tested, and the “hERG current change (%, negative = inhibition) at 10uM” value was 15.2%. With COC(=O)NN1C(=O)C(c2ccccc2)=C(c2ccc(Cl)cc2)C1=O the “hERG current change (%, negative = inhibition) at 10uM” value was -5.88%. O=C(c1ccco1)N1CCN(C(c2ccc(Cl)cc2)c2nnnn2Cc2ccccc2)CC1 (centres unmarked) was tested, and the “hERG current change (%, negative = inhibition) at 10uM” value was -68.2%. With Cc1ccc(C(=O)N(CC(=O)NC2CCCCC2)c2ccccc2F)s1 the “hERG current change (%, negative = inhibition) at 10uM” value was -13.9%. In the case of COc1cccc(N2CCN(c3ccc4nnc(CCC(=O)Nc5ccc(F)cc5F)n4n3)CC2)c1, the “hERG current change (%, negative = inhibition) at 10uM” value is reported as -38.2%. O=S(=O)(/N=C(/c1ccc(F)cc1)N1CCCCC1)c1ccc(Cl)cc1 was tested, and the “hERG current change (%, negative = inhibition) at 10uM” value was -11.5%. With CCCCN(C(=O)CSc1nnnn1C)c1c(N)n(Cc2ccccc2)c(=O)[nH]c1=O the “hERG current change (%, negative = inhibition) at 10uM” value was 7.29%. With Cc1nc2cc(-c3ccccc3)nn2c(C)c1CCC(=O)N1CCC2(CC1)OCCO2 the “hERG current change (%, negative = inhibition) at 10uM” value was -47.2%. For FC(F)(F)c1cccc(OCc2noc(-c3ccsc3)n2)c1, the “hERG current change (%, negative = inhibition) at 10uM” value was -3.78%. With COc1ccc(OC)c(NC(=O)c2cccnc2)c1 the “hERG current change (%, negative = inhibition) at 10uM” value was 17.4%. CCCCN(Cc1ccc(C(=O)N[C@H](C(=O)O)C(C)C)cc1)C(=O)C(c1ccccc1)c1ccccc1 was tested, and the “hERG current change (%, negative = inhibition) at 10uM” value was 1.77%. In the case of Cc1c(C#N)c2ncnc(N)c2n1-c1ccccc1, the “hERG current change (%, negative = inhibition) at 10uM” value is reported as 5.64%. In the case of CCN(c1ccccc1)S(=O)(=O)c1cc(CN2C(=O)c3cccnc3C2=O)ccc1OC, the “hERG current change (%, negative = inhibition) at 10uM” value is reported as -14.2%. For O=C(NCc1ccccc1)N[C@@H](Cc1c[nH]c2ccccc12)C(=O)O, the “hERG current change (%, negative = inhibition) at 10uM” value was 0.657%. CCNc1nnc(-c2ccccc2OC)s1 was tested, and the “hERG current change (%, negative = inhibition) at 10uM” value was -16.4%. With O=C(NCc1ccccn1)Nc1ccc2c(c1)OCO2 the “hERG current change (%, negative = inhibition) at 10uM” value was 20.2%. For Cn1c(=O)oc2cc(S(=O)(=O)N3CCCC3)ccc21, the “hERG current change (%, negative = inhibition) at 10uM” value was 10.3%. Fc1ccc(/C=N/N2CCOCC2)c(F)c1 was tested, and the “hERG current change (%, negative = inhibition) at 10uM” value was 54.5%. With COC(=O)C1=C(C(=O)OC)C(c2cc(Br)ccc2O)c2sc(=O)[nH]c2S1 (centres unmarked) the “hERG current change (%, negative = inhibition) at 10uM” value was -47.6%. For COC(=O)c1cc(S(=O)(=O)NCCc2ccc(SC)cc2)c[nH]1, the “hERG current change (%, negative = inhibition) at 10uM” value was -2.63%. O=c1[nH]c(N2CCOCC2)cc2ccccc12 was tested, and the “hERG current change (%, negative = inhibition) at 10uM” value was 2.45%. In the case of O=C1CCC(C(=O)Nc2cccc(S(=O)(=O)N3CCOCC3)c2)N1 (centres unmarked), the “hERG current change (%, negative = inhibition) at 10uM” value is reported as -6.26%. COc1ccc(NC(=O)CC2C(=O)N(c3ccccc3)C(=O)N2Cc2ccco2)cc1 (centres unmarked) was tested, and the “hERG current change (%, negative = inhibition) at 10uM” value was -19.3%. Cc1cc(Cl)ccc1OCC(=O)N/N=C/c1ccncc1 was tested, and the “hERG current change (%, negative = inhibition) at 10uM” value was -14.9%. CC(C)COc1ccc(-c2nnn(CC(=O)N3CCCC3)n2)cc1 was tested, and the “hERG current change (%, negative = inhibition) at 10uM” value was -3.91%. With CC(=O)c1oc2ccccc2c1NC(=O)COC(=O)c1ccc(-n2nc(C)cc2C)cc1 the “hERG current change (%, negative = inhibition) at 10uM” value was 27.4%. In the case of O=C(N/N=C1\CCCc2ccccc21)C(O)c1ccccc1 (centres unmarked), the “hERG current change (%, negative = inhibition) at 10uM” value is reported as -23.9%. In the case of Cc1ccc(CNC(=O)C(OC(=O)c2cccs2)C(C)C)cc1 (centres unmarked), the “hERG current change (%, negative = inhibition) at 10uM” value is reported as -2.43%. In the case of CN(C)c1ccc(C(=O)OCC(=O)N2CCOCC2)cc1, the “hERG current change (%, negative = inhibition) at 10uM” value is reported as 2.21%. In the case of COc1ccccc1Oc1ncnc2c1cnn2-c1ccccc1, the “hERG current change (%, negative = inhibition) at 10uM” value is reported as 8%. In the case of CNC(=S)N1C2CCC1CC(NC(=O)NC13CC4CC(CC(C4)C1)C3)C2 (centres unmarked), the “hERG current change (%, negative = inhibition) at 10uM” value is reported as -1.23%. For O=C(Nc1nc(-c2cccnc2)cs1)c1ccc([N+](=O)[O-])cc1, the “hERG current change (%, negative = inhibition) at 10uM” value was -4.99%. In the case of CN(Cc1c(C(=O)N/N=C/c2cccc(O)c2)nnn1-c1nonc1N)c1ccccc1, the “hERG current change (%, negative = inhibition) at 10uM” value is reported as -0.896%. For COc1ccc2c(c1)c1ncn(Cc3ccccn3)c(=O)c1n2C, the “hERG current change (%, negative = inhibition) at 10uM” value was -4.74%. With Cc1ccc(NC(=O)/C=C/c2cccc(C(F)(F)F)c2)cc1 the “hERG current change (%, negative = inhibition) at 10uM” value was 16.8%. In the case of COc1cccc(OC)c1OCC(O)CN1CCN(c2ccccc2F)CC1.Cl (centres unmarked), the “hERG current change (%, negative = inhibition) at 10uM” value is reported as -12.2%. With COc1cc2c(cc1OC)CN(C(=O)CSc1nc3[nH]ncc3c(=O)n1-c1ccccc1)CC2 the “hERG current change (%, negative = inhibition) at 10uM” value was -17.3%. COc1cccc(C2=CC(=O)C[C@H](c3ccc(OC)c(OC)c3)C2)c1 was tested, and the “hERG current change (%, negative = inhibition) at 10uM” value was -40%. For CCOc1cc(Br)c(/C=C2/C(=O)N(C)C(=S)N2CC(=O)OC)cc1OC, the “hERG current change (%, negative = inhibition) at 10uM” value was 4.94%.
